# Test results published in PubChem BioAssay AID504333 (National Center for Advancing Translational Sciences (NCATS), 2011).
# Several values for one entry are separate records, joined by “and”; a condition that tells them apart may be missing. Equal values may be shown once. Screen size: about 360,000 compounds; about 16,000 (4.4%) were called active. The inconclusive results got no clear call from the source; some entries with a clear call stand among them for comparison. Calls come from the whole dose curve; as a rule, active = well fitted inhibition curve with a large enough effect; inconclusive = small, poorly fitted or top-dose-only effect; inactive = no such curve, though single readings can be large or run the other way. Where the call is inconclusive, the potency comes from a doubtful curve fit.
# Molecular target: Bromodomain adjacent to zinc finger domain protein 2B (Homo sapiens) (UniProt Q9UIF8)
# Assay: qHTS Assay for Inhibitors of BAZ2B; note: nearly all actives have a fitted effect of over 60% in size
# Details: AlphaScreen BAZ2B-H3K14Ac peptide displacement; activity change, negative = inhibition: at 114 µM (top of the series)
# Procedure, shortened: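 AlphaScreen displacement: compounds (up to 110uM) incubated 30 min at room temperature with a preformed 50 nM BAZ2B/50 nM biotinylated H3K14Ac peptide complex in PBS pH 7.4 with Tween-20. Donor and acceptor beads at 10 ug/mL final added, 20 min light-protected before reading.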
# % is set by controls: 0 for no effect and ±100 for the full control effect; potency is the fitted concentration of half-maximal effect; tags give direction and shape of the fitted curve.
# UniProt Q9UIF8, sequence (Q9UIF8 whole entry, looked up, the tested form may be a part): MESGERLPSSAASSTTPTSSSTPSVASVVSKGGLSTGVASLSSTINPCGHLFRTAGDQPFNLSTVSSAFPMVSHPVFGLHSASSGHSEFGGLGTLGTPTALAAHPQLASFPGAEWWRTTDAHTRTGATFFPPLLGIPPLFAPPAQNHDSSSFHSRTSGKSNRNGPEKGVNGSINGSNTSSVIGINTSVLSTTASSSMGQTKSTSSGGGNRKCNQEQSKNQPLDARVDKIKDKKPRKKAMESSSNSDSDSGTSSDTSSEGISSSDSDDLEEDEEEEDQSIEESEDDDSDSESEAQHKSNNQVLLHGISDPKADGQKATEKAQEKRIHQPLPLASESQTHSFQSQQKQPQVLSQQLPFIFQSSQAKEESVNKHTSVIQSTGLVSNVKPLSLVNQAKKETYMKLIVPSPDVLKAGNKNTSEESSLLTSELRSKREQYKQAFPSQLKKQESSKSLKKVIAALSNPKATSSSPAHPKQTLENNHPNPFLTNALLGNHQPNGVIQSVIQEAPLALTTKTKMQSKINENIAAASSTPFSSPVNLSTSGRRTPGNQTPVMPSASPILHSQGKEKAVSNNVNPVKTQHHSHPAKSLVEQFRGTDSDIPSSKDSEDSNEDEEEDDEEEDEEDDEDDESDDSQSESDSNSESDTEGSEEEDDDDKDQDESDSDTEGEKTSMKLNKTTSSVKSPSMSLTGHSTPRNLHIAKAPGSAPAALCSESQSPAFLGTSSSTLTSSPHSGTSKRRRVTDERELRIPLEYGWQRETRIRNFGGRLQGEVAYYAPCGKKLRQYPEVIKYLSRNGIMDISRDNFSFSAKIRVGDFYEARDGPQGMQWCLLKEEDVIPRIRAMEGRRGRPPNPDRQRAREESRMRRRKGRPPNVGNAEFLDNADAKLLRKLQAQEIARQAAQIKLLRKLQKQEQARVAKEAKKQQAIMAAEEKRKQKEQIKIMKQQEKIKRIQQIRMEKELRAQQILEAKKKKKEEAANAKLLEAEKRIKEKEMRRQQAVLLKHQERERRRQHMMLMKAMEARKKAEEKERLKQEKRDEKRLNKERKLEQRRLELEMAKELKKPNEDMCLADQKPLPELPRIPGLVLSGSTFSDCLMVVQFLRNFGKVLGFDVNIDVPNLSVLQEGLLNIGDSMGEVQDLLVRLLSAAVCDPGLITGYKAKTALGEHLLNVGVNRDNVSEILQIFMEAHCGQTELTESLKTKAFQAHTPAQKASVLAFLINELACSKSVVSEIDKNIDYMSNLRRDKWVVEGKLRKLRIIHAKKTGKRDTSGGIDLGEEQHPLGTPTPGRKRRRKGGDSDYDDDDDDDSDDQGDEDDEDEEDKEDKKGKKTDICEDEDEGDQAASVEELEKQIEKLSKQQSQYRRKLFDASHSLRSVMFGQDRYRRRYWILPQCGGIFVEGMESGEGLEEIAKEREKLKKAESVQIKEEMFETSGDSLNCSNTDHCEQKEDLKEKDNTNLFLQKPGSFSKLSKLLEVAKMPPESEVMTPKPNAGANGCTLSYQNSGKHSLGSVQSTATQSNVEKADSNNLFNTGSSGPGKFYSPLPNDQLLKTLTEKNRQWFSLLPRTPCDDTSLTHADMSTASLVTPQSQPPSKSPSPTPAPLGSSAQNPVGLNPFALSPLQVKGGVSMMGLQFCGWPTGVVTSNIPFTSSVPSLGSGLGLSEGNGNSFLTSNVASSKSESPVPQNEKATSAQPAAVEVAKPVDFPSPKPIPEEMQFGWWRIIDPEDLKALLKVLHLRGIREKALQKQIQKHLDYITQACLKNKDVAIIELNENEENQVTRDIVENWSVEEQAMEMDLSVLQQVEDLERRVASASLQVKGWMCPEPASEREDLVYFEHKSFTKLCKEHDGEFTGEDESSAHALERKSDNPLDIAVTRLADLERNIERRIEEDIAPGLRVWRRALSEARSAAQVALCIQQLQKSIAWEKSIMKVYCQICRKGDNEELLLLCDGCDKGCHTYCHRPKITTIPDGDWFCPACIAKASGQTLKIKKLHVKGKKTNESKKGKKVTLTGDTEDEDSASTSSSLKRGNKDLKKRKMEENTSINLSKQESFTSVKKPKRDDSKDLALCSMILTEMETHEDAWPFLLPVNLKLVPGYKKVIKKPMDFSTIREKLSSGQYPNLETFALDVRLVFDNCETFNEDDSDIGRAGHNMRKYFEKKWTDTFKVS
Compound,Potency,"activity change, negative = inhibition"
CN(C)/C=C/C(=O)c1ccc2noc(-c3ccccc3)c2c1,"inconclusive: 70.8 µM [inhibitor, single point]",–
Cc1ccccc1CC1C(=O)Nc2ccc(Br)cc21 (stereo not given),"inconclusive: 89.1 µM [inhibitor, single point]",–
CCc1ccc(CNCc2c(C(=O)O)c(C)n(Cc3c(F)cccc3Cl)c2C)cc1,"inconclusive: 31.6 µM [inhibitor, full curve]",–
c1ccc(COc2cccc(CN3CCCCC3)c2)cc1,"inconclusive: 44.7 µM [inhibitor, partial curve]",–
CCOc1cccc(C(=O)N(Cc2ccc(N(C)C)cc2)CC2CCCO2)c1 (stereo not given),active: 50.1 µM,–
S=C1NCCc2ccccc2C1c1ccccc1 (stereo not given),active: 44.7 µM,–
Cc1oc(-c2ccccc2)cc1C(=O)Nc1ccc(N(C)C)cc1,active: 20 µM,–
COc1ccc(C2=CC(=O)OC3(CCCC3)O2)cc1,"inconclusive: 7.08 µM [inhibitor, single point]",–
COc1ccc(NC(=O)c2cc(S(=O)(=O)N3CCc4ccccc43)cn2C)cc1OC,"inconclusive: 44.7 µM [inhibitor, partial curve]",–
O=C(O)CC(NCc1ccco1)C(=O)OCC1CCCO1 (stereo not given),active: 50.1 µM,–
Cc1nc(Cl)cc(CS(=O)(=O)c2ccc(Cl)cc2)n1,active: 79.4 µM,–
CCNS(=O)(=O)c1ccc(CCC(=O)N2CCc3ccccc3C2)cc1,–,inactive: -30.9%
Cc1ccc(N(C)S(=O)(=O)c2cc(-c3cnc(C4CC4)o3)ccc2C)cc1,"inconclusive: 70.8 µM [inhibitor, single point]",–
O=C(O)c1c(-c2ccccc2)oc2ccc(OCc3ccc(Cl)c(Cl)c3)cc12,"inconclusive: 10 µM [inhibitor, full curve, poor fit]",–
O=C(COc1ccccc1)N1CCN(c2ccccc2)CC1,"inconclusive: 89.1 µM [inhibitor, single point]",–
Cn1cc(CCC(=O)NCc2ccc(Cl)cc2)c2ccccc21,"inconclusive: 56.2 µM [inhibitor, partial curve, poor fit] and inconclusive: 89.1 µM [inhibitor, single point]",–
COc1ccc(C(=O)Nc2ccc(S(=O)(=O)Nc3nccc(C)n3)cc2)cc1[N+](=O)[O-],–,inactive: 0.408%
CCN(c1ccccc1)S(=O)(=O)c1ccc(C(=O)N2CC(C)CC(C)C2)cc1 (stereo not given),"inconclusive: 89.1 µM [inhibitor, single point]",–
COc1ccc(OC)c(C2NC(=O)c3sc(=S)n(-c4ccccc4)c3N2)c1 (stereo not given),"inconclusive: 50.1 µM [inhibitor, partial curve]",–
N#C/C(=C\c1ccncc1)c1nc2ccccc2c(=O)[nH]1,"inconclusive: 89.1 µM [inhibitor, single point]",–
CC1CN(S(=O)(=O)c2ccc(NC(=O)CCN3C(=O)c4ccccc4C3=O)cc2)CC(C)O1 (stereo not given),"inconclusive: 89.1 µM [inhibitor, single point]",–
CCn1cc(C(=O)O)c(=O)c2cc(F)c(N3CCN(C(=S)NC(=O)c4ccccc4Br)CC3)cc21,active: 70.8 µM,–
COc1cc(C(=O)OCCn2c(=O)c3c(ncn3CCN(C)C)n(C)c2=O)cc(OC)c1OC,"inconclusive: 89.1 µM [inhibitor, single point]",–
Cc1ccc(C)c(Nc2ncnc(N)c2[N+](=O)[O-])c1,–,inactive: 2.75%

Compound,Potency,"activity change, negative = inhibition"
Nc1c(Cl)ncnc1N/N=C/c1ccc(O)cc1,"inconclusive: 89.1 µM [inhibitor, single point]",–
COc1cc(OC)nc(Oc2cc(C=O)ccc2OC)n1,–,inactive: 2.37%
COCCCN1C(=O)C(=O)/C(=C(/O)c2ccccc2)C1c1ccc(N(C)C)cc1 (stereo not given),"inconclusive: 100 µM [inhibitor, single point]",–
Cc1cc(NCCCn2ccnc2)n2ncc(-c3ccc(Cl)cc3)c2n1,"inconclusive: 50.1 µM [inhibitor, partial curve]",–
COc1ccc(N2CCN(C(=O)C3Cc4ccccc4CN3C(=O)c3ccccc3)CC2)cc1 (stereo not given),"inconclusive: 50.1 µM [inhibitor, partial curve]",–
COc1ccccc1CN1CCc2c([nH]c3ccccc23)C1,active: 50.1 µM,–
COc1ccc(Oc2cn[nH]c2-c2ccc(OCC(=O)NN)cc2O)cc1,"inconclusive: 25.1 µM [inhibitor, full curve, poor fit]",–
Cc1ccc(C)c(N2CCN(C(=O)c3cc4c(=O)n(Cc5ccco5)ccc4nc3C)CC2)c1,"inconclusive: 70.8 µM [inhibitor, partial curve]",–
COc1ccc(OC)c(Cc2nnc(CCC(=O)NCc3ccc(C)s3)o2)c1,"inconclusive: 39.8 µM [inhibitor, partial curve]",–
COc1ccc(CN(C)C2CCN(C)CC2)cc1OC,active: 56.2 µM,–
Cc1cccc(NC(=O)CN2CCCCCC2)c1,"inconclusive: 79.4 µM [inhibitor, single point]",–
CCOc1ccc(C2c3[nH]c4ccccc4c3CCN2Cc2cccn2-c2ncccn2)cc1 (stereo not given),active: 28.2 µM,–
Cc1ccc(Nc2nc(N)nc(CN3CCN(Cc4ccc5c(c4)OCO5)CC3)n2)cc1,active: 56.2 µM,–
CN(C)c1ccc(NC(=O)Nc2cccc3ccccc23)cc1,"inconclusive: 31.6 µM [inhibitor, partial curve]",–
O=C1CC(SC(=Nc2ccccc2)Nc2ccccc2)C(=O)N1c1ccc(Cl)cc1 (stereo not given),"inconclusive: 100 µM [inhibitor, single point]",–
Cc1cccc(CN2CCCC(C(=O)c3ccc4c5c(cccc35)CC4)C2)n1 (stereo not given),"inconclusive: 44.7 µM [inhibitor, partial curve]",–
O=[N+]([O-])c1cc(Br)cc(C=Nc2ccc3c(c2)OCO3)c1O,active: 44.7 µM,–
CCCCC(CC)CNC(=O)CN(C)S(=O)(=O)c1ccc2c(c1)c(=O)n(C)c(=O)n2C (stereo not given),–,inactive: -1.93% [at 57.1 µM]
O=C(c1ccc(S(=O)(=O)Cc2ccccc2Cl)c([N+](=O)[O-])c1)N1CCN(c2ccccn2)CC1,"inconclusive: 28.2 µM [inhibitor, partial curve]",–
Oc1ccc(C2=CSC3=NCCN23)cc1O,"inconclusive: 89.1 µM [inhibitor, single point]",–
COc1cc(SC)ccc1C(=O)NCCOc1c(C)cc(C)cc1C,–,inactive: 27.3%
COc1ccc(-c2cc(=O)oc3cc(OC(C)C(=O)NC(Cc4c[nH]c5ccc(O)cc45)C(=O)O)ccc23)cc1 (stereo not given),active: 50.1 µM,–
COc1ccc(CCNC(=O)c2nnn(CC(=O)Nc3cccc(F)c3)c2N)cc1OC,active: 50.1 µM,–
O=C(Nc1nnc(-c2ccco2)o1)c1ccc(Cl)s1,"inconclusive: 89.1 µM [inhibitor, single point]",–

Compound,Potency,"activity change, negative = inhibition"
CCN(CC)CCOc1cccc(C(C)C)c1,"inconclusive: 70.8 µM [inhibitor, single point]",–
Cc1ccc(CNc2ccc([N+](=O)[O-])cc2C(N)=O)cc1,–,inactive: 2.41%
O=[N+]([O-])c1ccc(N2CCN(c3ccc(O)cc3)CC2)cn1,"inconclusive: 70.8 µM [inhibitor, single point]",–
CN1c2ccccc2-c2nc3ccccc3n2C1c1ccccn1 (stereo not given),"inconclusive: 89.1 µM [inhibitor, single point]",–
COc1ccc(N(CCCN2C(=O)c3cccc4cccc(c34)C2=O)C(=O)c2ccncc2)cc1,"inconclusive: 31.6 µM [inhibitor, full curve]",–
O=C(N/N=C/c1ccccn1)c1cccc([N+](=O)[O-])c1,active: 44.7 µM,–
COc1ccc(N(CC(=O)NCCC2=CCCCC2)S(=O)(=O)c2ccccc2)c(OC)c1,–,inactive: -24.1%
CCSc1ncc(Cl)c(C(=O)N(Cc2ccc(N(C)C)cc2)Cc2ccco2)n1,active: 10 µM,–
CCSc1nnc(-c2ccc(S(=O)(=O)N3CCOCC3)cc2)n1CC1CCCO1 (stereo not given),–,inactive: 8.52%
CCCN(CCC)CCNC(=O)Cn1cc2c(n1)-c1c(oc(C(=O)N3CCCC3)c1C)CC2,"inconclusive: 79.4 µM [inhibitor, single point]",–
Cc1cccc(-c2nnn3c2nc(NCCc2ccc(S(N)(=O)=O)cc2)c2ccccc23)c1,"inconclusive: 89.1 µM [inhibitor, single point]",–
COc1ccc([C@H]2CC(=O)C=C(/C=C/c3ccccc3)C2)cc1OC,"inconclusive: 39.8 µM [inhibitor, partial curve]",–
NC(=S)n1[nH]c(-c2ccccc2)c(N=Nc2ccccc2C(=O)N2CCOCC2)c1=O,"inconclusive: 79.4 µM [inhibitor, single point]",–
NNC(=O)c1oc2nc(-c3cccs3)cc(-c3ccco3)c2c1N,"inconclusive: 50.1 µM [inhibitor, partial curve]",–
CN(C)CCN(Cc1cc2cc3c(cc2[nH]c1=O)OCO3)C(=S)NCc1ccco1,–,inactive: -2.49%
O=C(N/N=C/c1ccccn1)c1ccc(Br)cc1,–,inactive: -6.71%
CCOc1cc(/C=C2/NC(=O)NC2=O)cc(Br)c1OCc1ccc(C(=O)O)cc1,active: 70.8 µM,–
Cc1cc2c(cc1C)[n+](C)cn2CC(O)COCC1CC=CCC1 (stereo not given),"inconclusive: 89.1 µM [inhibitor, single point]",–
COc1ccc(C)cc1NC(=O)CNC(c1ccccc1)c1ccccc1,–,inactive: 15.2%
O=C(C1=C[C@@H](c2ccc(Br)cc2)C[C@@H](OCc2ccc(CO)cc2)O1)N1CCN(Cc2ccccc2)CC1,"inconclusive: 56.2 µM [inhibitor, single point]",–
O=C(NCc1ccccn1)c1coc(=O)c(Br)c1,active: 17.8 µM,–
Cn1cc(C(=O)N/N=C/c2c(O)ccc3ccccc23)ccc1=O,"inconclusive: 0.316 µM [inhibitor, full curve]",–
